Experimental data published in ChEMBL document CHEMBL1201862, “PubChem BioAssay data set” (2004).
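Five concentrations, 48 hours, 96-well plates. Abbreviation: GI50, concentration required for 50% inhibition of growth.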 The source made the active and inactive calls. No stated cut-off is given here; in the data, active = GI50 up to about 1.1 µM and inactive = higher.

What follows are molecules tested on NCI-H322M (assay: NCI-60 cell line screen, 48 h).
For NC(=O)C(C(N)=O)=C(O)/C(O)=C/C(=O)c1ccccc1, the GI50 was inactive: > 100 µM.
For CC1CC[C@@]2(OC1)OC1C[C@H]3[C@@H]4CC[C@H]5CC(OC6OC(CO)C(O)C(OC7OC(CO)C(OC8OC(CO)C(O)C(OC9OC(CO)C(O)C(O)C9O)C8OC8OC(CO)C(O)C(O)C8O)C(O)C7O)C6O)[C@H](O)CC5(C)[C@H]4CCC3(C)C1[C@@H]2C (stereo partly specified), the GI50 was inactive: 2.27 µM.
For O=C1Cc2c([nH]c3ccccc23)-c2cc(Br)ccc2N1, the GI50 was inactive: > 100 µM.
For CC(C)(C)c1cc(COc2cc(COc3ccc(-c4c5c(nc6c4CCc4ccc(-c7c8ccccc8nc8ccccc78)cc4-6)-c4cc(-c6c7ccccc7nc7ccccc67)ccc4CC5)cc3)cc(OCc3cc(C(C)(C)C)cc(C(C)(C)C)c3)c2)cc(C(C)(C)C)c1, the GI50 was inactive: > 100 µM.
With Sc1cnnc2ccc(Br)cc12 the GI50 was inactive: 59.7 µM.
For COc1ccc2c(c1)CC1COc3cc(OC)ccc3C1O2 (stereo unspecified), the GI50 was inactive: > 100 µM.
CCN(CCCN(CC)C(=O)Nc1c(C)cccc1C)C(=O)Nc1c(C)cccc1C was tested, and the GI50 was inactive: > 100 µM.
In the case of C[N+](C)(C)CC1CCCCC1O (stereo unspecified), the GI50 is reported as inactive: > 100 µM.
With COc1ccc(OC)c(/C=C/C(=O)C(C)(C)C)c1 the GI50 was inactive: 24 µM.
In the case of CC1(C)CCC2=C(O1)c1ccccc1/C(=N/c1ccc([N+](=O)[O-])cc1)C2=O, the GI50 is reported as inactive: 15.1 µM.
In the case of CC1C(c2ccccc2)N(C)C(c2ccccc2)C(C)C1(O)c1ccccc1 (stereo unspecified), the GI50 is reported as inactive: > 100 µM.
Cc1ccc(O)c(-c2csc(NCN3CCN(CNc4nc(-c5cc(C)ccc5O)cs4)CC3)n2)c1 was tested, and the GI50 was inactive: > 100 µM.
O=S(=O)(O)c1cc(O)c(/N=N/c2ccc(O)cc2O)c2ccccc12 was tested, and the GI50 was inactive: 37.2 µM.
For O=S(=O)(O)c1ccc(/N=N/c2ccc3c(S(=O)(=O)O)cccc3c2O)c2ccccc12, the GI50 was inactive: > 100 µM.
In the case of CC1(C)C(CBr)=[N+]([O-])C(C)(C)N1O, the GI50 is reported as inactive: > 10 µM.
In the case of Cc1c[n+]2c3ccccc3c3ccccc3c2s1.[O-][Cl+3]([O-])([O-])[O-], the GI50 is reported as inactive: 9.89 µM.
CO/C(N)=C(C#N)/N=C/c1ccco1 was tested, and the GI50 was inactive: > 100 µM.
O=C1N[C@@H](COc2ccc(/C=N/c3ccc(CCc4ccc(/N=C/c5ccc(OC[C@@H]6COC(=O)N6)cc5)cc4)cc3)cc2)CO1 was tested, and the GI50 was inactive: > 100 µM.
NNC(=S)N/N=C(/C(=O)Nc1ccc([N+](=O)[O-])cc1)c1nc2ccc([N+](=O)[O-])cc2nc1O was tested, and the GI50 was inactive: > 100 µM.
With COc1ccc2c(c1)Oc1cc(O)ccc1[C@@H]2c1ccccc1C(=O)NC(C)c1ccccc1 (stereo partly specified) the GI50 was inactive: 15.5 µM.
CC(=O)NC(C)(C)C1CCC(C)CC1 (stereo unspecified) was tested, and the GI50 was inactive: > 100 µM.
N#Cc1c(-c2ccccc2)cc(Nc2ccc(Cl)cc2)n2c1nc1ccccc12 was tested, and the GI50 was inactive: 1.44 µM.
For Cc1ccc2c(c1)C1(C)OC(CC(N)C1O)O2 (stereo unspecified), the GI50 was inactive: > 100 µM.
In the case of CCOc1cc2c(cc1O)/C(=N\O)C[C@@H]1[C@@H]2CC[C@]2(C)[C@@H](O)CC[C@@H]12, the GI50 is reported as active: < 0.0261 µM.
In the case of COc1ccc(C(=O)/C=C/c2ccc(OCC(=O)N3CCN(c4ccccc4)CC3)cc2)cc1, the GI50 is reported as inactive: > 100 µM.
For Cc1c(Cl)cc(C(C)(C)C)c(O)c1Cc1c(C)c(Cl)cc(C(C)(C)C)c1O, the GI50 was inactive: 2.3 µM.
NS(=O)(=O)c1nnc(NS(=O)(=O)c2cccc3cccnc23)s1 was tested, and the GI50 was inactive: > 100 µM.
With CC1=CC(C)C/C=C/C2C3OC3(C)C(C)C3C(Cc4c[nH]c5ccccc45)NC(=O)C23C(=O)C=CC(=O)C1O (stereo unspecified) the GI50 was inactive: 15 µM.
In the case of Nc1ccn(CC(CO)CC(c2ccccc2)P(=O)(O)O)c(=O)n1 (stereo unspecified), the GI50 is reported as inactive: > 100 µM.
With Cc1cc(NS(=O)(=O)c2ccc(NC(=O)c3cccc4cc5ccccc5nc34)cc2)no1 the GI50 was inactive: 18.2 µM.
With OCC(O)C(OC1OC(CO)C(O)C(O)C1O)c1nn(-c2ccccc2)c2nc3cc(Cl)c(Cl)cc3cc12 (stereo unspecified) the GI50 was inactive: > 100 µM.
CC1(C)C(=O)C(C)(C)C12SSC1(S2)C(C)(C)C(=O)C1(C)C was tested, and the GI50 was inactive: > 100 µM.
COc1cccc(/N=N/C(=N/NC(=O)c2ccc(C)cc2)c2ccc(N(CCC#N)CCC#N)cc2OC)c1 was tested, and the GI50 was inactive: 22.4 µM.
CC1CCC2[C@@H](C)COC3O[C@]4(C)CCC1C32OO4 (stereo partly specified) was tested, and the GI50 was inactive: > 100 µM.
In the case of Cc1ccsc1/C(S)=N\c1ccc(Cl)c(/C=N/OC(C)(C)C)c1, the GI50 is reported as inactive: 43 µM.
CC(=O)Oc1ccn2nc(C)c(Cc3c(C)nn4ccc(OC(C)=O)cc34)c2c1 was tested, and the GI50 was inactive: > 100 µM.
For COC(=O)C12Oc3ccc(-c4ccc5c(c4O)C(=O)C4=CCC(C)C(O)C4(C(=O)OC)O5)c(O)c3C(=O)C1=CCC(C)C2O (stereo unspecified), the GI50 was inactive: 3.35 µM.
In the case of CCCCI(O)OS(=O)(=O)c1ccc(C)cc1, the GI50 is reported as inactive: > 100 µM.
In the case of Cc1cc(NCCCCCCCCNc2cc(C)nc3cc(N)ccc23)c2ccc(N)cc2n1, the GI50 is reported as inactive: 21.2 µM.
O=C1c2ccccc2C(=O)N1/N=C1/SC(=N\c2ccccc2)/C(=N/c2ccccc2)N1c1ccccc1 was tested, and the GI50 was inactive: > 100 µM.
For CC1(C)[N+]([O-])=[N+]([O-])C1(C)Br (stereo unspecified), the GI50 was inactive: > 100 µM.
COc1c(C)c2c(c(=O)c3c(C)cccc3n2C)c2c1c(=O)c1c(C)cccc1n2C was tested, and the GI50 was inactive: > 10 µM.
For Nc1nc(Cl)nc2c1ncn2C1CC(O)C(CO)O1 (stereo unspecified), the GI50 was inactive: 79.3 µM.
C=C1CC2(CCOc3ccc(Cl)cc32)OC1=O (stereo unspecified) was tested, and the GI50 was inactive: 11.1 µM.
In the case of O=C(CSc1n[nH]c(=O)[nH]c1=O)NNC(=O)c1cccc2nc3ccccc3nc12, the GI50 is reported as inactive: 29.9 µM.
In the case of O=C1NC2=C(CCCC/C2=N\O)C12CCCCC2, the GI50 is reported as inactive: > 100 µM.
In the case of COC(=O)C1=C(C)NC(C)=C(C(=O)OC)C1c1ccc(/[N+]([O-])=C/c2ccccc2)cc1, the GI50 is reported as inactive: > 100 µM.
With CC(=O)OCC1OC(Nc2nc(O)n(C)c(=O)c2-c2csc(N)n2)C(OC(C)=O)C(OC(C)=O)C1OC(C)=O (stereo unspecified) the GI50 was inactive: > 100 µM.
For CC1(C)N=C(/C(Cl)=[N+](/[O-])C(=O)c2ccc(F)cc2)C(C)(C)N1O, the GI50 was inactive: 25.8 µM.
For CC(=O)c1ccc(Nc2c3ccccc3nc3occc23)cc1, the GI50 was active: 0.17 µM.
In the case of S=C1/C(=N/c2ccccc2)N(c2ccccc2)/C(=N\c2ccccn2)N1c1ccccc1, the GI50 is reported as inactive: 16.8 µM.
CCN(CC)CC1CCCCN1CC(=O)N1c2ccc(Br)cc2C(=O)Nc2cccnc21 (stereo unspecified) was tested, and the GI50 was inactive: > 100 µM.
In the case of c1ccc2c[n+](CCCC[n+]3ccc4ccccc4c3)ccc2c1, the GI50 is reported as inactive: > 100 µM.
With CN(C)CCN1C(=O)CC[C@@]2(C)C1=CC[C@@H]1[C@@H]2CC[C@@]2(C)[C@H]1CC[C@]2(C)O the GI50 was inactive: > 100 µM.
For CC(C)(C)/N=c1/n(C(C)(C)C)oc(=O)n1C(C)(C)C, the GI50 was inactive: > 100 µM.
With CCc1nc(N)nc(N)c1-c1ccc(Cc2ccccc2)c([N+](=O)[O-])c1 the GI50 was active: 0.051 µM.
In the case of O=[N+]([O-])C(/C(Cl)=C(/Cl)N1CCOCC1)=C1\Nc2ccccc2O1, the GI50 is reported as inactive: > 100 µM.
In the case of O=[N+]([O-])c1ccc2ncccc2c1CCc1c([N+](=O)[O-])ccc2ncccc12, the GI50 is reported as inactive: > 100 µM.
With O=C1C=CC(=C(c2ccccc2)c2ccc(O)cc2)C=C1 the GI50 was inactive: 14.9 µM.
In the case of C[N+](C)(C)CC(=O)N/N=C/c1oc(-c2c(O)ccc3ccccc23)c(-c2c(O)ccc3ccccc23)c1[N+](=O)[O-], the GI50 is reported as inactive: 18.8 µM.
With O=C1/C(=C\c2ccccc2)c2ccccc2N1Cc1ccccc1 the GI50 was inactive: 9.82 µM.
O=c1/c(=C/c2ccccn2)sc2nc3cc4c(cc3n12)OCCO4 was tested, and the GI50 was inactive: > 100 µM.
For Cc1ccnc2nc(N)ccc12, the GI50 was inactive: > 100 µM.
In the case of COC(=O)c1cc(-c2ccc(OC)c(OC)c2)oc1-c1ccc(OC)c(OC)c1, the GI50 is reported as inactive: 48.5 µM.
With CCc1cccc(C(C)CC)c1NC(=O)C(=O)C(CC(=O)Nc1ccc(Cl)c(Cl)c1)C(=O)OC (stereo unspecified) the GI50 was inactive: > 100 µM.
In the case of Cc1ccc(S(=O)(=O)n2cc(/C=C/C#N)c(-c3cn(S(=O)(=O)c4ccc(C)cc4)cc3-c3cn(S(=O)(=O)c4ccc(C)cc4)cc3/C=C/C#N)c2)cc1, the GI50 is reported as inactive: > 100 µM.
With CC1=NN(C(=O)CC(=O)Nc2ccccc2Cl)C(=O)C1/N=N\c1ccc(S(=O)(=O)c2ccc(/N=N/C3C(=O)N(C(=O)CC(=O)Nc4ccccc4Cl)N=C3C)cc2)cc1 (stereo unspecified) the GI50 was inactive: > 100 µM.
For O=C(NCCCN(CCCCN(CCCNC(=O)c1cc(S(=O)(=O)O)cc(O)c1O)C(=O)c1cc(S(=O)(=O)O)cc(O)c1O)C(=O)c1cc(S(=O)(=O)O)cc(O)c1O)c1cc(S(=O)(=O)O)cc(O)c1O, the GI50 was inactive: > 100 µM.
With OCC(O)CNc1ccnc2cc(Cl)ccc12 (stereo unspecified) the GI50 was inactive: > 100 µM.
With COc1ccc(/C=C2\NC(=S)N(CN3CCCCC3)C2=O)cc1 the GI50 was inactive: > 100 µM.
Nc1c(Cl)ncnc1NCC1(CO)CCC1 was tested, and the GI50 was inactive: > 100 µM.
For CC1CNc2ccccc2N=C1NN (stereo unspecified), the GI50 was inactive: > 100 µM.
In the case of COc1ccc2[nH]cc(C(=O)C(=O)NC34CC5CC(CC(C5)C3)C4)c2c1, the GI50 is reported as inactive: 37.7 µM.
With [N-]=[N+]=Nc1cccc(-c2nnc(Cl)cc2O)c1 the GI50 was inactive: > 100 µM.
O=Cc1ccc2ccocc1-2 was tested, and the GI50 was inactive: > 100 µM.
CC(C)OC(=O)c1ccc(CCC2=CC(=O)C(Br)=CC2=O)cc1 was tested, and the GI50 was inactive: 27.9 µM.
N#CC(C#N)=Cc1cccc(Oc2ccccc2)c1 was tested, and the GI50 was inactive: 42.6 µM.
COc1ccccc1NC(=O)C1=C(C)NC(C)=C(C(=O)Nc2ccccc2OC)C1c1ccccc1[N+](=O)[O-] was tested, and the GI50 was inactive: 39.9 µM.
Cc1ccc(-c2cc(O)c3nc4ccccc4n3c2)cc1 was tested, and the GI50 was inactive: > 100 µM.
For O=C(Nc1cccc([N+](=O)[O-])c1)C(=O)C(C(=O)c1ccccc1-c1ccccc1)C1OC(=O)c2ccccc21 (stereo unspecified), the GI50 was inactive: 21.2 µM.
In the case of CC(C)=CCc1c(OC(=O)c2c(C)cc(O)cc2O)cc(CO)c(CO)c1O, the GI50 is reported as inactive: 21.3 µM.
In the case of C1CC2=C(C1)[Se]C(=C1Sc3nsnc3S1)[Se]2, the GI50 is reported as inactive: > 100 µM.
With CCN(CC)CCC1(C(=O)OC)SCCc2ccc(C)cc21 (stereo unspecified) the GI50 was inactive: > 100 µM.
With CC(=O)N1CC(C)(C)c2c(C)c(O)c(C)c(C)c21 the GI50 was inactive: > 100 µM.
In the case of NC(=O)c1cc(N2CC2)c([N+](=O)[O-])cc1[N+](=O)[O-] [TRETAZICAR], the GI50 is reported as inactive: > 100 µM.
For Cc1nc2c(O)cc3c4c(n(Cc5ccccc5)c3c2nc1C)C(=O)CCC4, the GI50 was inactive: 37.5 µM.
